Among all 310,000 compounds or so, about 2,200 (0.71%) showed an effect of 50% or more. Effects have a minus sign here. The list shows a part of the results. Where a SMILES comes first, the peptide text is derived from it. [ ]: non-standard residue; d: D form. The star is where a group is joined. Hyp = O=C(O)[CH]1C[CH](O)CN1; Cbz = O=C(OCc1ccccc1)*; OBn = c1ccc(CO*)cc1

The assay deals with human ether-à-go-go-related gene (hERG) potassium channel (human, UniProt Q12809). In words: primary screen, population patch clamp on CHO cells stably expressing hERG.
Sequence of human ether-à-go-go-related gene (hERG) potassium channel (Q12809 whole entry, looked up): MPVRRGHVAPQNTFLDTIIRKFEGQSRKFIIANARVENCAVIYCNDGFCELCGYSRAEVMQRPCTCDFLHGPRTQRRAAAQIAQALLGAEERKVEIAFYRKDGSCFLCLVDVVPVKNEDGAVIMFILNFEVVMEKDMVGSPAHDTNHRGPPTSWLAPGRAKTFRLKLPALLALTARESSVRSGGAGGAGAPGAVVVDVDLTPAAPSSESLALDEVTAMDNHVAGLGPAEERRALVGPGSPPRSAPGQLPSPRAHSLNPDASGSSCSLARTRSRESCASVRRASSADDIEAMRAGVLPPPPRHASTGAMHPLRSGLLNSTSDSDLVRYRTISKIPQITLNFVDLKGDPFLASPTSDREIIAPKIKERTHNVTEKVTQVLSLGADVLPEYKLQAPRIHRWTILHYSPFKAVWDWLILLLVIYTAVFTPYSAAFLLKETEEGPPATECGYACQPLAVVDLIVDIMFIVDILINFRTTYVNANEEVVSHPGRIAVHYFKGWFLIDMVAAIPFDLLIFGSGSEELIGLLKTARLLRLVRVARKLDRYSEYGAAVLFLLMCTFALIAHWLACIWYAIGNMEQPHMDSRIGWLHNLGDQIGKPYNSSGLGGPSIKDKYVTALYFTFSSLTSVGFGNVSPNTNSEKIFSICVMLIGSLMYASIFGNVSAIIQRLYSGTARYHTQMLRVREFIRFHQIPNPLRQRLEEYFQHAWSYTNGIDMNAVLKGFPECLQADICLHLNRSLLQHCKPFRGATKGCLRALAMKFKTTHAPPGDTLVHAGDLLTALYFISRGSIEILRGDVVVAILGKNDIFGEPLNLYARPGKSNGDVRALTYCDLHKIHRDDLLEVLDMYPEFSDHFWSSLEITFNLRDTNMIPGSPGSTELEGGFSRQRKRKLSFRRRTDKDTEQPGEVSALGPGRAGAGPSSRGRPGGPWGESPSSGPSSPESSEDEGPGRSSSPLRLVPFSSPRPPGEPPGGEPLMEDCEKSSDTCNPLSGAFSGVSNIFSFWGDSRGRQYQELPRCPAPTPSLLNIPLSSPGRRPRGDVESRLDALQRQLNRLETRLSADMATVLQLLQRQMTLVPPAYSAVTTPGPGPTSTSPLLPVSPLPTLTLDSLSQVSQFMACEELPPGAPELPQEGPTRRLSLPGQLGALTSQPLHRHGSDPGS
As to `COc1ccc(C(=O)OC2C[C@H]3CC[C@@H](C2)N3O)cc1OC` (stereo partly shown), the “hERG current change (%, negative = inhibition) at 1uM” value is 12.4%.
In the case of `COC(=O)C1(C)NCCc2c1[nH]c1ccccc21` (stereo not shown) it was 13.2%.
As for `c1ccc(OCc2nc(-c3cccs3)no2)cc1`, the figure is 12.5%; as for `CCN1CCN(C(=O)C2CCN(Cc3cc(Cl)ccc3O)CC2)CC1.O=C(O)C(=O)O`, 2.93%.
For the compound `COCCn1c(SCC(=O)NCc2cccs2)nnc1-c1ccc(OC)cc1`, the “hERG current change (%, negative = inhibition) at 1uM” value came to 15.1%.
In the case of `CCCn1c2ccccc2c2nnc(SCc3[nH]c(=O)[nH]c3C(=O)CCCCC(=O)OCC)nc21` it was 3.48%; in that of `CCOC(=O)Cc1csc(NC(=O)CCSc2ccccc2)n1`, 7.34%; in that of `CC(=O)Oc1ccc(C(=O)Nc2cccnc2)cc1`, 13.2%.
In the case of `CCSc1nnc(NC(=O)c2ccc(C)o2)s1` it was 9.75%; in that of `Cn1c(COc2ccc(Cl)cc2)nnc1SCC(=O)NC1CC1`, -3.09%; in that of `COc1ccccc1N1CCN(C(C)C(=O)Nc2ccc(S(=O)(=O)N3CCOCC3)cc2)CC1` (stereo not shown), -1.47%.
In the case of `Cc1ccccc1OC/C(O)=C(\C#N)c1nc2ccccc2[nH]1`, the “hERG current change (%, negative = inhibition) at 1uM” value turned out to be 7.44%.
For `CCO[C@@H]1OC(C(=O)N2CCN(Cc3ccc4c(c3)OCO4)CC2)=C[C@H](c2cn(C(C)=O)c3ccccc23)[C@H]1CCCO`, the “hERG current change (%, negative = inhibition) at 1uM” value was 11.8%.
For the compound `CCOCCCNC(=O)C(Cc1ccccc1)NS(=O)(=O)c1ccc2c(c1)c(=O)n(C)c(=O)n2C` (stereo not shown), the “hERG current change (%, negative = inhibition) at 1uM” value was 2.62%.
As for `Cc1ccc(-c2nn[nH]n2)cc1Cl`, the figure is 11.7%.
Consider `O=C1C2C3C=CC(C2C(=O)N1c1ccccc1O)C1C2C(=O)N(c4ccccc4O)C(=O)C2C31` (stereo not shown), for which the “hERG current change (%, negative = inhibition) at 1uM” value is reported as 13.1%.
Regarding `COc1ccc(-n2c(SCC(=O)Nc3cccc4ccccc34)nc(O)cc2=O)cc1`, the “hERG current change (%, negative = inhibition) at 1uM” value stood at 15.4%.
In the case of `O=C(c1ccc(-n2c(SCc3cc(F)ccc3F)nc3ccccc3c2=O)cc1)N1CCOCC1` it was 14%; in that of `CC1CCc2sc3ncn4nc(C(=O)NCc5ccco5)nc4c3c2C1` (stereo not shown), -2.05%; in that of `CC(C)(C)C1CCc2onc(C(=O)Nc3ccc4c(c3)OCO4)c2C1` (stereo not shown), 8.94%.
As to `CC(=O)C1=C(C)NC(SCC(=O)c2ccc(Cl)c(Cl)c2)=C(C#N)C1c1ccco1` (stereo not shown), the “hERG current change (%, negative = inhibition) at 1uM” value was 10%.
In the case of `O=C(CN1C(=O)CCS(=O)(=O)c2ccccc21)NCc1ccc(F)cc1` it was 2.98%; in that of `CC(C)c1nc(SCC(=O)N2CCOCC2)c2c(=O)n(C)c(=O)n(C)c2n1`, 6.43%; in that of `Cc1nnsc1NC(=O)OCc1ccc(Cl)cc1Cl`, 2.17%.
As for `CCOc1ccccc1OCCOCCOc1c(Cl)cccc1Cl`, the figure is 6.46%; as for `Nc1c(C(=O)Nc2ccccc2F)sc2nc(-c3cccnc3)ccc12`, 21%.
In the case of `Cc1cc(CCCCCCCCc2cc(C)cc(=O)o2)oc(=O)c1` it was 13.2%.
`COc1cc(C(=O)OCC(=O)Nc2ccc(C)cc2)cc(OC)c1OC`: the “hERG current change (%, negative = inhibition) at 1uM” value was 14.1%.
In the case of `Cc1ccccc1C(=O)c1c[nH]c(C(N)=O)c1` it was 7.7%.
Consider `Clc1ccccc1-c1ccc2ncnc(NCc3ccc4c(c3)OCO4)c2c1`, for which the “hERG current change (%, negative = inhibition) at 1uM” value is on record as 16.4%.
As for `CC(NC(=O)CNC(=O)OCc1ccccc1)C(=O)N1CC(O)CC1C(=O)OCc1ccccc1` (stereo not drawn) (Cbz-Gly-Ala-[Hyp]-OBn; configuration not given here), the figure is 13.7%; as for `COc1ccc(CN(C(=O)Cn2nnc3ccccc32)C(C(=O)NC(C)(C)C)c2ccco2)cc1` (stereo not shown), 0.341%.
Turning to `Cc1cc(C)n2c3c(c(C#N)c2n1)CC(C)(C)OC3`, the “hERG current change (%, negative = inhibition) at 1uM” value came out at 10.4%.
Consider `Clc1ccc(-c2noc(CN(Cc3ccccn3)CC3CCCO3)n2)cc1` (stereo not shown), for which the “hERG current change (%, negative = inhibition) at 1uM” value was determined as 0.387%.
As for `N#Cc1c2c(c(Nc3ccccc3)n3c1nc1ccccc13)CCC2`, the figure is 10.4%; as for `O=C(Nn1c(-c2ccncc2)nc2ccccc2c1=O)c1ccc(Br)cc1`, 0.826%; as for `CCOC(=O)C1=C(COC(=O)C2CC(=O)N(c3ccc(CC)cc3)C2)NC(=O)NC1C` (stereo not shown), 9.71%.
For `c1ccc(-n2ncc3c(N4CCN(c5ccccn5)CC4)nc(N4CCCCCC4)nc32)cc1`, the “hERG current change (%, negative = inhibition) at 1uM” value was determined as 4.45%.
In the case of `CC(C)(C)c1cc([N+](=O)[O-])cc(C(C)(C)C)c1O` it was 4.13%; in that of `COc1ccc(/C=C/C(=O)Nc2ccccc2C(=O)O)cc1`, 6.8%.
Take `CCOc1ccc(OCC)c(NC(=O)CCn2cccc2)c1`: the “hERG current change (%, negative = inhibition) at 1uM” value was 8.35%.
As for `O=C(c1cc(Cl)cc(Cl)c1)N1CCC(=O)N(C(COCc2ccccc2)Cc2ccccc2)CC1` (stereo not shown), the figure is 8.01%; as for `COc1ccc(NC(=O)CN(C)CCOc2ccc(Cl)cc2)cc1OC.O=C(O)C(=O)O`, 8.34%.
For the compound `CC(=O)c1c(C)nn(CCC(=O)O)c1C`, the “hERG current change (%, negative = inhibition) at 1uM” value stood at 12.2%.
For `CC(=O)Nc1ccc(S(=O)(=O)N(C)CC(=O)OC(C)C(=O)N(C)C2CCCCC2)cc1` (stereo not shown), the “hERG current change (%, negative = inhibition) at 1uM” value stood at 10.1%.
Take `Cc1cc(C)n(CC(O)COc2ccccc2C(=O)Nc2ccccc2)n1` (stereo not shown): the “hERG current change (%, negative = inhibition) at 1uM” value came out at 7.38%.
As for `O=C(C1CCCN(C2CC(=O)N(c3ccc(F)cc3)C2=O)C1)N1CCCC1` (stereo not shown), the figure is 13.8%.
In the case of `CCOC(=O)C1CCCN(C(=O)c2ccccc2NC(=O)C2=C(C)OCCS2)C1` (stereo not shown) it was 21.6%; in that of `CC(C)(C)C(=O)N1CCN(C(c2ccccc2)c2ccccc2)CC1`, 7.71%.
In the case of `Cc1ccc(-n2ncc3c(NNC(=O)c4ccco4)ncnc32)c(C)c1` it was 17.8%; in that of `O=C(Nc1nn(Cc2ccccc2F)cc1Br)c1cccs1`, 1.57%; in that of `COCCn1c(SCC(=O)Nc2cccc(OC)c2)nc2c(oc3ccccc32)c1=O`, -9.21%.
Consider `CCOC(=O)c1ccc(NC(=S)N2CCN(S(C)(=O)=O)CC2)cc1`, for which the “hERG current change (%, negative = inhibition) at 1uM” value worked out at 4.07%.
As for `Cl.O=[N+]([O-])c1cc(S(=O)(=O)CCCN2CCOCC2)ccc1F`, the figure is 11.5%; as for `Cc1cc(C(=O)CSCCCn2c(=O)[nH]c3ccccc32)c(C)n1C`, 15.7%.
In the case of `O=C(CC1(C(=O)O)CCCC1)N1CCOCC1` it was 1.14%; in that of `Cc1c(C(=O)N(Cc2cccc(Br)c2)C2CCS(=O)(=O)C2)oc2ccccc12` (stereo not shown), 11.5%.
In the case of `CC(C)(CC(=O)O)CC(=O)Nc1ccccc1Oc1ccccc1` it was -0.446%.
As to `CCC(CC)C(=O)Nc1cc([N+](=O)[O-])ccc1F`, the “hERG current change (%, negative = inhibition) at 1uM” value turned out to be 12%.
In the case of `Cc1ccc(NS(=O)(=O)c2ccc(Cl)c(NC(=S)NC(=O)C3CCCCC3)c2)cc1Cl` it was 10.8%; in that of `CC(C)c1nc2c(c(=O)c3ccccc3n2C)c(=O)n1CCc1ccccc1`, 7.37%; in that of `Cc1cccc(C(=O)NNC(=O)c2ccc(NC(=O)C(C)(C)C)cc2)c1`, 12.5%.
As for `Cc1cc(/C=N/n2cnnc2)c(C)n1-c1ccc(OCc2ccc(F)cc2)cc1`, the “hERG current change (%, negative = inhibition) at 1uM” value is 14.1%.
As for `Cc1ccc(S(=O)(=O)CCC(=O)OCc2ccc(Cl)c(Cl)c2)cc1`, the figure is -1.11%; as for `CC(C)NC(=O)NC(=O)CSc1ncccn1`, 4.96%; as for `COc1ccc(N(C(C)C(=O)Nc2ccc(S(=O)(=O)N3CCOCC3)cc2)S(C)(=O)=O)cc1` (stereo not shown), 12.6%.
Take `CCOc1ncccc1C(=O)OCC(=O)c1ccccc1`: the “hERG current change (%, negative = inhibition) at 1uM” value worked out at 13.2%.
As for `Cc1ccc(NC(=O)Cn2c(/C=C/c3ccccc3)nc3ccccc32)cc1C`, the figure is 1.95%.
In the case of `CCOC(=O)C1CCN(C(=O)c2ccc(NS(=O)(=O)c3ccc(F)cc3C)cc2)CC1`, the “hERG current change (%, negative = inhibition) at 1uM” value is -3.51%.
As for `COc1ccc(CN2CC=C(c3ccc(F)cc3)CC2)cc1Br`, the figure is 10.3%; as for `COc1ccccc1N(CC(=O)NCCSCc1cccc(Cl)c1)S(C)(=O)=O`, -14.2%.
`COc1ccc(C(=O)c2c(C)oc3cc([N+](=O)[O-])c(O)c([N+](=O)[O-])c23)cc1`: the “hERG current change (%, negative = inhibition) at 1uM” value was determined as 8.59%.
As for `CCN(CC)CCn1c2ccccc2c2cnc(N=CN(C)C)c(C#N)c21`, the figure is -18.4%; as for `CC(OC(=O)CNS(=O)(=O)c1ccc2ccccc2c1)C(=O)N(C)c1ccccc1` (stereo not shown), 13.4%.
On to `O=C(N=c1ccn(-c2nc3ccccc3nc2NS(=O)(=O)c2ccc(Cl)cc2)cc1)c1ccccc1Cl`, for which the “hERG current change (%, negative = inhibition) at 1uM” value came to 6.49%.
In the case of `Cc1cc(=O)c(C(=O)O)cn1-c1ccc(C(C)C)cc1` it was 6.7%; in that of `COc1ccc(S(=O)(=O)NC(Cc2ccccc2)C(=O)O)cc1` (stereo not shown), 10.6%.
Consider `CCOC(=O)C(Cc1ccccc1)(NC(C)=O)C(=O)OCC`, for which the “hERG current change (%, negative = inhibition) at 1uM” value was 14.4%.
In the case of `O=C(CNCCN1CCOCC1)Nc1ccccc1Sc1ccccc1.O=C(O)C(=O)O` it was 1.74%.
For `COCCN1C(=O)N[C@@H](c2ccco2)C(C(=O)OC)=C1C`, the “hERG current change (%, negative = inhibition) at 1uM” value was determined as 8.11%.
Turning to `CN(C)CCNC(=O)c1coc(=O)c(Br)c1`, the “hERG current change (%, negative = inhibition) at 1uM” value is 10.9%.
As for `CCOC(=O)c1c(NC(=O)Cn2ccsc2=N)sc(C)c1C.Cl`, the figure is -1.96%.
In the case of `CC(c1nc2ccccc2c(=O)[nH]1)N1CCCN(S(=O)(=O)c2ccc(F)cc2)CC1` (stereo not shown) it was -7.16%; in that of `Cc1ccccc1CS(=O)(=O)Cc1ccc(C(=O)NCCCN2CCCC2=O)o1`, 7.69%.
In the case of `CCCCOC(=O)CSc1nnc(-c2ccc(Cl)cc2Cl)o1` it was 7.82%.
